Test results: the supplement of paper PMC9433436
± gives the standard deviation of the averaged measurements. Over roughly 4,100 sequences, “relative kcat/Km (krel) vs genomic leader AAAGAU” has its median near 1.7; the highest 2% begin near 6.5. Only a part is listed here, and it is no random draw.

Target: T1, E. coli RNase P holoenzyme (M1 P RNA + rnpA protein) (UniProt P0A7Y8)
T1 sequence: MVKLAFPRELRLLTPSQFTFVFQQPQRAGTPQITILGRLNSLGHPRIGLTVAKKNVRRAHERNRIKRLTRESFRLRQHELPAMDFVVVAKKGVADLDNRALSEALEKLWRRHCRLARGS
Assay: relative kcat/Km (krel) vs genomic leader AAAGAU (relative (reference leader = 1)); higher = faster RNase P cleavage
Procedure: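 HTS-Kin: a pool of ptRNA-Met (21C construct) with all 4096 combinations of 5' leader nucleotides N(-6) to N(-1) was processed in vitro by E. coli RNase P (P RNA + rnpA/C5 protein) under multiple-turnover conditions at 37 C, pH 8, 17.5 mM MgCl2. Residual substrate was Illumina-sequenced at several fractions reacted, and relative kcat/Km (krel) was computed by internal competition kinetics, calibrated to the genomic leader (AAAGAU = 1). The listed hexamer is the varied N(-6)..N(-1) leader (DNA letters), and it sits between a fixed 5' stem-loop flank (GCAUGCACGAAAGUGCGUGCUAUGAA) and the mature tRNA-Met starting GGCUACGUAGCUCAGUUGG. Two technical replicates are averaged.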

[1] = fraction of substrate reacted: ~9-10% (9.79% repeat 1, 9.1% repeat 2)
[2] = fraction of substrate reacted: ~13-16% (15.68% repeat 1, 13.17% repeat 2)
[3] = fraction of substrate reacted: ~26-29% (28.66% repeat 1, 26.4% repeat 2)

| Sequence | relative kcat/Km [1] | relative kcat/Km [2] | relative kcat/Km [3] |
| --- | --- | --- | --- |
| ATCGTC | 2.63 ± 0.57 | 3.09 ± 0.84 | 5.08 ± 2.1 |
| TGTCTT | 3.02 ± 0.56 | 3.83 ± 1.2 | 4.75 ± 1.9 |
| ACAGCC | 2.4 ± 1.1 | 2.1 ± 0.58 | 2.21 ± 0.81 |
| CTGCTT | – | – | 1.22 ± 0.51 |
| CGCTAT | 3.49 ± 0.87 | 4.44 ± 1.6 | 5.95 ± 2.4 |
| CATTCG | 0.596 ± 0.4 | – | 1.47 ± 0.035 |
| CGATCC | 1.75 ± 0.92 | 2.33 ± 0.088 | 2.53 ± 0.38 |
| TATGAG | 0.55 ± 0.25 | 0.152 ± 0.019 | 1.2 ± 0.038 |
| GGAATC | – | 1.06 ± 0.53 | 1.22 ± 0.75 |
| AACGTA | 1.92 ± 0.44 | 2.44 ± 0.64 | 3.06 ± 1.4 |
| ATTCTC | 1.98 ± 1.2 | 2.42 ± 0.093 | 2.25 ± 0.56 |
| GAACAT | 2.55 ± 0.48 | 2.63 ± 0.68 | 4.14 ± 1.9 |
| ACCTCA | 3.35 ± 1.8 | 3.24 ± 0.27 | 4 ± 1.2 |
| GTACAG | – | – | 1.99 ± 0.4 |
| AACAGT | – | – | 2.24 ± 2 |
| CCAGAT | 2.9 ± 1.7 | 1.93 ± 0.26 | 2.22 ± 0.35 |
| AAATGT | – | – | 2.05 ± 2 |
| TGGAAC | – | – | 0.833 ± 0.35 |
| CTTCTC | 2.7 ± 0.99 | 2.2 ± 0.35 | 2.77 ± 0.98 |
| AAGCCT | 1.05 ± 0.53 | 1.47 ± 0.083 | 1.34 ± 0.26 |
| ACTTAC | 3.88 ± 2.3 | 4.09 ± 0.096 | 5.29 ± 1.6 |
| TAATGT | – | – | 2.37 ± 2.3 |

| Sequence | relative kcat/Km [1] | relative kcat/Km [2] | relative kcat/Km [3] |
| --- | --- | --- | --- |
| ACGCAG | 0.448 ± 0.095 | – | 1.49 ± 0.28 |
| TGCGAG | – | 0.318 ± 0.22 | 1.39 ± 0.28 |
| TCGTGG | 0.584 ± 0.19 | – | 1.06 ± 0.46 |
| TGCCGC | 2.45 ± 1.5 | 2.57 ± 0.23 | 3.68 ± 0.97 |
| AGTTAA | 3.63 ± 1.5 | 5.9 ± 0.68 | 7.15 ± 2.6 |
| CTTATG | 1.82 ± 1.8 | 0.705 ± 0.59 | 2.15 ± 0.35 |
| ACTGCA | 0.87 ± 0.37 | 0.819 ± 0.09 | 1.37 ± 0.24 |
| CTCATG | – | 1.28 ± 0.22 | 3.1 ± 0.052 |
| CACCCC | 1.67 ± 0.38 | 2.1 ± 0.89 | 3.14 ± 1.3 |
| ACTTCT | 2.31 ± 0.79 | 2.78 ± 0.18 | 3.19 ± 0.94 |
| TCGAGT | – | 0.672 ± 0.41 | 0.529 ± 0.17 |
| ATGATC | 2.3 ± 0.63 | 1.98 ± 0.29 | 2.3 ± 0.83 |
| CGTTAG | 2.87 ± 1.6 | 2.22 ± 0.3 | 4 ± 1.2 |
| CAACCC | 1.41 ± 0.43 | 1.26 ± 0.56 | 1.22 ± 0.096 |
| ATCGAA | 3.16 ± 0.35 | 5.71 ± 1.4 | 8.19 ± 3.6 |
| CATGAG | – | – | 1.2 ± 0.17 |
| CAGCGC | 1.95 ± 0.83 | 1.4 ± 0.14 | 2.09 ± 0.64 |
| AGACCA | 1.27 ± 0.22 | 1.42 ± 0.018 | 1.64 ± 0.34 |
| GCTAAA | 2.13 ± 1.7 | 1.47 ± 0.58 | 1.95 ± 0.53 |
| GATCAC | 2.93 ± 0.77 | 4.27 ± 1.3 | 5.26 ± 2.1 |
| TTTGTC | 1.05 ± 0.19 | 1.43 ± 0.32 | 2.4 ± 0.88 |
| CGCCCA | 1.85 ± 0.27 | 2.38 ± 1.3 | 2.48 ± 0.8 |

| Sequence | relative kcat/Km [1] | relative kcat/Km [2] | relative kcat/Km [3] |
| --- | --- | --- | --- |
| GTCGGG | – | – | 1.35 ± 1.2 |
| GATTTC | 2.78 ± 0.97 | 2.06 ± 0.32 | 3.08 ± 1.1 |
| ATTGGA | – | – | 1.1 ± 0.92 |
| TCACTC | 2.98 ± 1.1 | 3.39 ± 0.6 | 4.17 ± 1.6 |
| ATACCC | 1.05 ± 0.23 | 1.06 ± 0.49 | 1.6 ± 0.78 |
| TAGACT | 1.57 ± 0.72 | 1.78 ± 0.12 | 2.46 ± 0.38 |
| TGCAGC | 1.49 ± 0.18 | 1.27 ± 0.17 | 2.46 ± 0.81 |
| CTAGTC | 1.27 ± 0.6 | 1.23 ± 0.52 | 1.2 ± 0.19 |
| TTAAAG | – | 0.945 ± 0.13 | 2.39 ± 0.35 |
| GTTGTC | 1.22 ± 0.7 | 0.978 ± 0.41 | 1.29 ± 0.029 |
| GTAACT | 1.61 ± 1.5 | 0.842 ± 0.58 | 1.84 ± 0.14 |
| CAACAA | 1.73 ± 0.16 | 1.93 ± 0.43 | 2.71 ± 0.97 |
| GTGCGA | 0.924 ± 0.86 | 0.399 ± 0.18 | 0.912 ± 0.3 |
| GAGCTC | 0.875 ± 0.65 | – | 0.989 ± 0.38 |
| TGTGCT | 0.945 ± 0.82 | – | 0.802 ± 0.18 |
| GCAGAC | 0.808 ± 0.24 | 1.34 ± 0.71 | 1.91 ± 0.18 |
| CGAATG | – | – | 1.16 ± 0.56 |
| CGAACG | – | – | 0.73 ± 0.69 |
| GATGCA | 0.743 ± 0.17 | 1.11 ± 0.46 | 1.08 ± 0.16 |
| ATACTA | 1.88 ± 1.2 | 1.52 ± 0.6 | 1.85 ± 0.34 |
| ACGCCA | 1.04 ± 0.45 | 0.894 ± 0.25 | 1.64 ± 0.41 |
| ACCGCG | – | 0.685 ± 0.57 | 1.56 ± 0.95 |

| Sequence | relative kcat/Km [1] | relative kcat/Km [2] | relative kcat/Km [3] |
| --- | --- | --- | --- |
| TGTCCA | 1.6 ± 0.34 | 2.33 ± 0.84 | 2.67 ± 1.3 |
| CCCGTT | 1.08 ± 0.35 | 2.03 ± 0.24 | 2.1 ± 0.67 |
| GGTCAT | 1.45 ± 0.43 | 2.14 ± 0.21 | 4.09 ± 2.1 |
| GAATTA | 1.25 ± 0.15 | 1.82 ± 0.37 | 2.25 ± 0.75 |
| ACCCTC | 2.85 ± 2 | 2.41 ± 0.28 | 2.807 ± 0.02 |
| GCCATC | 2.88 ± 0.72 | 3.43 ± 1.3 | 4.62 ± 1.3 |
| AACGGG | – | – | 0.891 ± 0.48 |
| CATCGG | – | – | 0.655 ± 0.38 |
| GGTACC | 1.24 ± 0.92 | 1.15 ± 0.14 | 1.16 ± 0.23 |
| CAGAAA | 2.35 ± 2 | 3.24 ± 0.65 | 3.42 ± 0.13 |
| GGCCCC | 0.72 ± 0.13 | 0.988 ± 0.15 | 1.62 ± 0.37 |
| GTACCA | 1.52 ± 1.1 | 1.13 ± 0.32 | 1.45 ± 0.6 |
| GCGGAG | – | – | 0.583 ± 0.36 |
| AAGCAA | 1.01 ± 0.21 | 1.75 ± 0.23 | 1.98 ± 0.49 |
| CACCAT | 4.34 ± 1.2 | 4.72 ± 0.96 | 7.01 ± 2.9 |
| CTGCTG | – | – | 0.453 ± 0.36 |
| CATTCC | 2.66 ± 0.74 | 2.47 ± 0.84 | 3.45 ± 1.6 |
| GGTTAA | 0.853 ± 0.094 | 1.16 ± 0.33 | 1.35 ± 0.6 |
| ACGACC | 1.02 ± 0.14 | 1.39 ± 0.44 | 1.77 ± 0.14 |
| ACGTGG | – | – | 0.71 ± 0.24 |
| AGCAAT | 2.43 ± 0.54 | 2.33 ± 0.049 | 3.3 ± 1.1 |
| AACCGA | 2.67 ± 0.52 | 3.23 ± 0.34 | 4.66 ± 1.2 |

| Sequence | relative kcat/Km [1] | relative kcat/Km [2] | relative kcat/Km [3] |
| --- | --- | --- | --- |
| TATCGC | 3.54 ± 1.1 | 4.59 ± 0.51 | 6.07 ± 2.4 |
| GAAGCT | 1.14 ± 0.78 | 0.844 ± 0.63 | 0.958 ± 0.24 |
| AGACTG | – | – | 0.856 ± 0.39 |
| ACCGGC | 1.08 ± 0.83 | – | – |
| CCCTAG | 3.11 ± 1.7 | 2.55 ± 0.57 | 4.45 ± 1.2 |
| CGTGAA | 2.15 ± 0.028 | 3.13 ± 1.1 | 2.87 ± 0.64 |
| TTTAAG | 1.93 ± 1.5 | 1.69 ± 0.026 | 3.46 ± 0.87 |
| GCGTAC | 2.64 ± 0.68 | 1.98 ± 0.25 | 3.77 ± 1.5 |
| TCCGTG | – | – | 1.91 ± 0.025 |
| GAGGCT | 0.402 ± 0.011 | – | 1.18 ± 0.69 |
| GCTATC | 1.45 ± 0.98 | 0.842 ± 0.77 | 1.645 ± 0.013 |
| TTGGCC | – | 0.606 ± 0.17 | 0.355 ± 0.29 |
| GCGCTC | 0.9 ± 0.13 | 0.964 ± 0.85 | 1.48 ± 0.05 |
| CCGACC | – | 1.1 ± 0.28 | 1.68 ± 0.81 |
| GTAGTT | 1.73 ± 0.71 | 1.11 ± 0.18 | 1.39 ± 1.1 |
| TCCACT | 2.76 ± 1.1 | 3.06 ± 0.4 | 4.72 ± 1.1 |
| GGGGAC | 0.497 ± 0.46 | – | 1.42 ± 0.45 |
| GATCAA | 1.51 ± 1.2 | 1.86 ± 0.76 | 3.21 ± 1.1 |
